Test results as given in PubChem BioAssay AID651820 (National Center for Advancing Translational Sciences (NCATS), 2012).
Among all 340,000 compounds or so, about 12,000 (3.5%) were called active. Inconclusive means that the source gave no clear call. Such entries were picked first, then a sample of the others. Calls follow the shape of the dose curve; as a rule, active = well fitted inhibition curve with a large enough effect; inconclusive = small, poorly fitted or top-dose-only effect, or another doubt; inactive = no such curve, though single readings can be large or run the other way. Potencies of inconclusive entries are left out as doubtful fits.
% is scaled to controls: 0 for no effect and ±100 for the full control effect; potency is read from the fitted curve at half-maximal effect; tags tell the direction and shape of the fitted curve.

Experiment: qHTS Assay for Inhibitors of Hepatitis C Virus (HCV)
Conditions: Huh7.5.1 HCVcc-Cre (HCVcc is cell-culture hepatitis C virus) infection, luciferase reporter, 44 h; activity change, negative = inhibition: at 41.8 µM (top of the series)
Summary of the method: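 1,000 cells/well; 4 h culture; + compound; + HCVcc-Cre (~0.5 moi); 44 h; luciferase substrate, RT 15 min; read 15 sec.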
For COc1ccccc1/C=C/C=N/NC(=O)Cc1cccs1, the Potency was inconclusive [inhibitor, partial curve]. With Cc1ccc(C(C)C)c(OCC(=O)Nc2cccc(S(=O)(=O)NC3=NCCCCC3)c2)c1 the Potency was inconclusive [inhibitor, partial curve]. For CCCCNc1ccc2nsnc2c1[N+](=O)[O-], the Potency was inconclusive [inhibitor, full curve]. In the case of Cc1ccc(-c2nc(-c3ccncc3)no2)cc1, the Potency is reported as inconclusive [inhibitor, single point]. In the case of Cc1cc(C)nc(NCC(O)CNc2ccccc2Cl)n1 (stereo unspecified), the Potency is reported as inconclusive [inhibitor, partial curve]. In the case of CCC(C)(C)NC(=O)C(OC(=O)c1cc2sccc2n1C)c1ccc(OC)cc1 (stereo unspecified), the “activity change, negative = inhibition” value is reported as inactive: 6.03%. For COc1ccc(Nc2nc(N)nc(CSc3nccc(C)n3)n2)cc1, the “activity change, negative = inhibition” value was inactive: -7.53%. For O=C(Cc1ccccc1Cl)Nc1ccc(S(=O)(=O)N2CCOCC2)cc1, the Potency was inconclusive [inhibitor, single point]. In the case of CC(Oc1ccc(C#N)cc1)C(=O)N1CC=C(c2ccccc2)CC1 (stereo unspecified), the Potency is reported as inconclusive [inhibitor, partial curve]. In the case of COc1ccc(-c2nc(-c3ccccc3OC)no2)cc1OC, the Potency is reported as inconclusive [inhibitor, full curve]. With CCOc1ccc(-c2cc3cc(OC)c(OC)cc3c(C)n2)cc1 the Potency was inconclusive [inhibitor, full curve, poor fit]. In the case of CCCCn1c(N)c(N(CCOC)C(=O)CCCc2nc3ccccc3c(=O)[nH]2)c(=O)[nH]c1=O, the “activity change, negative = inhibition” value is reported as inactive: 30.8%. With O=C(COC(=O)c1ccc(O)cc1O)Nc1cccc2ccccc12 the “activity change, negative = inhibition” value was inactive: 8.12%. In the case of CN1CCN(C(=O)c2cc(COc3c(F)cccc3F)on2)CC1c1ccccc1 (stereo unspecified), the “activity change, negative = inhibition” value is reported as inactive: -21.8%. For CO/N=C/c1ccc(N2CCN(C(=O)c3cccc(C(F)(F)F)c3)CC2)c([N+](=O)[O-])c1, the Potency was inconclusive [inhibitor, single point]. In the case of C/C(=N\NC(=O)c1cc(-c2cccnc2)nc2ccccc12)c1ccc(O)cc1O, the Potency is reported as active: 3.98 µM. With Nc1nc2c(F)c(F)c(F)cc2s1 the “activity change, negative = inhibition” value was inactive: 12.4%. With COc1ccc(N2CC(C(=O)Nc3nnc(SCc4cccnc4)s3)CC2=O)cc1 (stereo unspecified) the “activity change, negative = inhibition” value was inactive: 19.3%. For CC12CC(NC(=O)N1Cc1ccccc1)c1ccccc1O2 (stereo unspecified), the Potency was inconclusive [inhibitor, full curve]. For COCCn1ccc2c(OCC(=O)NCCc3ccccc3)cccc2c1=O, the Potency was active: 10 µM. For O=C(Cn1c(=O)[nH]c2ccccc2c1=O)Nc1ccc2c(c1)OCO2, the “activity change, negative = inhibition” value was inactive: -11.1%.
